According to PubChem BioAssay AID1159614 (National Center for Advancing Translational Sciences (NCATS), 2016):
About 65 (0.1%) of roughly 45,000 compounds were called active. Calls come from the whole dose curve; as a rule, active = well fitted activation curve with a large enough effect; inconclusive = small, poorly fitted or top-dose-only effect; inactive = no such curve, though single readings can be large or run the other way. This is one part of the list.

target: Galactocerebrosidase (Homo sapiens) (UniProt P54803); experiment: A Novel Cell-Based Assay to Identify Small Molecules for B -Galactocerebrosidase; details: 145M-Twi-hGALC-G270D cells (Twitcher mouse brain line with human GALC G270D), HMU-beta-Gal fluorescence, 48 h; series mostly up to 57.5 µM; activation: at the top concentration; note: 0% is about no effect; nearly all actives have a fitted effect of over 65% in size
Procedure, shortened: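 Fluorogenic HMU-b-Gal hydrolysis (0.1 mM final, pH 5.2 citrate-phosphate with 1 mg/mL sodium taurocholate; carbonate stop buffer) measures mutant GALC activity after compound treatment of live 145M-Twi Twitcher brain cells stably carrying human GALC-G270D, with wild-type GALC line alongside; activation sought.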

Chain of UniProt P54803 (P54803 whole entry, looked up): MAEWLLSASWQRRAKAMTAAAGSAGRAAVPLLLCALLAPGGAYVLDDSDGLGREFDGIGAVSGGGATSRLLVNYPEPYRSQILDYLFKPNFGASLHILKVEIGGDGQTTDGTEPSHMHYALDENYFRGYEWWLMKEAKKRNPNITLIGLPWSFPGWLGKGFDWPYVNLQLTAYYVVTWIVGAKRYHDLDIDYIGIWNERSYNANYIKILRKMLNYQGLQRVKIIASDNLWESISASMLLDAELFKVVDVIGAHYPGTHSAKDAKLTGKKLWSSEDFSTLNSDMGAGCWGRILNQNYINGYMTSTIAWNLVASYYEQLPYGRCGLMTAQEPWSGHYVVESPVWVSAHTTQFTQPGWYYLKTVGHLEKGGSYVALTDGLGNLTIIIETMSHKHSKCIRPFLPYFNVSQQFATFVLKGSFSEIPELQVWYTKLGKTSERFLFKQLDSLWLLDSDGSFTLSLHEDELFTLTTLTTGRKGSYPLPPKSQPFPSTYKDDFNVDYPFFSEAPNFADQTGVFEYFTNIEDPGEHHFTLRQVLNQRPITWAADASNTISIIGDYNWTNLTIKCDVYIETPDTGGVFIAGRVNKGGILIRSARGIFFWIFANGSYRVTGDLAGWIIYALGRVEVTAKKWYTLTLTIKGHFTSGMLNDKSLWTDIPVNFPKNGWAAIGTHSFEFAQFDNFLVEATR

activation, inactive:
COc1ccc(OC)c(CNC(=O)C2CCN(S(=O)(=O)c3cn(C)cn3)CC2)c1 -14.7%
COc1cc(Cl)c(C)cc1NC(=O)c1cc(CN2CCOCC2)on1 -14.3%
CCC1CN(S(=O)(=O)c2cc(-c3cc(C)no3)ccc2OC)c2cc(C)ccc2O1 (centres undefined) -3.47%
COc1ccc(-c2ccc(CNc3ccc4[nH]c(=O)[nH]c4c3)o2)cc1Cl -1.13%
Cn1cnnc1SCC(=O)Nc1cc(C(=O)O)cc(C(=O)O)c1 -14.3%
COc1ccc(NC(=O)c2sc3nc4c(cc3c2N)CN(C(C)C)CC4)c(OC)c1 -17.3%
Cc1cccc(C(=O)NCC(c2ccc3c(c2)OCO3)N2CCN(c3ccccc3F)CC2)c1 (centres undefined) -8.16%
COc1cc(-c2noc(CSc3nc(-c4ccccc4)cc(=O)[nH]3)n2)cc(OC)c1OC -8.27%
Cc1cc(=O)n2[nH]c(NCc3ccc(F)cc3)nc2n1 -2.41%
Cc1ccc(-n2nc(C)c3c(C)cc(=O)n(CC(=O)Nc4ccc(Br)cc4F)c32)cc1 -5.15%
COc1ccc(S(=O)(=O)c2c(Nc3ccc(C)cc3)sc(C(=O)c3ccc(C)cc3)c2N)cc1 -22.9%
CCc1ccc(Oc2nc3c(C)cccn3c(=O)c2/C=C(\C#N)c2nc3ccccc3[nH]2)cc1 -19.9%
O=C(CCCn1c(=O)c2cccn2c2ccc(F)cc21)NCCc1ccccc1 4.38%
CCOC(=O)CSc1nc2ccc(NC(=O)c3ccc(F)cc3)cc2s1 3.76%
Cc1ccc(Cl)cc1NC(=O)Nc1c(C)n(C)n(-c2ccccc2)c1=O -9.85%
CCOC(=O)c1cccc(NC(=O)CCc2c(C)nc3cc(-c4ccc(Cl)cc4)nn3c2C)c1 -10.9%
CCc1nnc(SCC(=O)N(C)c2ccccc2)c2cc3sccc3n12 -6.56%
Cc1ccc(CSCC(=O)NCc2ccc(F)cc2)cc1 -7.66%
CCOc1ccccc1Nc1nc(-c2cccc(Cl)c2)c2c(n1)-c1ccccc1OC2 -10.8%
COc1ccc(NC(=O)Cn2cc(S(=O)(=O)c3ccc(C)cc3)c(=O)c3ccccc32)cc1OC -10.3%
COc1ccc(-c2noc(-c3ccc(NCc4ccco4)c([N+](=O)[O-])c3)n2)cc1 -9.72%
CCCn1c(=O)n(-c2cc(Cl)c(OC)cc2OC)c(=O)c2c3c(sc21)CN(C(C)=O)CC3 -17.6%
CC1=C(C(=O)Nc2cccnc2)C(c2cccc(O)c2)n2nc(SCc3ccccc3)nc2N1 (centres undefined) 2.23%
Cc1ccc(Nc2nnc(-c3ccc(C)c(S(=O)(=O)N4CCN(C)CC4)c3)c3ccccc23)c(C)c1 -8.67%
Cc1ccc([C@H]2Nc3ccc(S(=O)(=O)Nc4cccc(Cl)c4C)cc3[C@H]3C=CC[C@H]32)cc1 -7.42%
CCn1cc(CCC(=O)NCc2ccc(F)cc2)c2ccccc21 -8.16%
CCOc1ccc(C(=O)NCCc2csc(-c3ccc(C(F)(F)F)cc3)n2)cc1OCC -9.13%
COc1ccc(C(=O)N2CCC(c3nc4ccccc4o3)CC2)cc1 5.11%
COc1ccc(OC)c(NC(=O)Cn2cnc3sc(C)c(S(=O)(=O)N4CCN(c5ccccc5OC)CC4)c3c2=O)c1 -4.55%
CCCN(C(=O)c1nn(-c2ccc(OC)c(Cl)c2)c(=O)c2c1c1ccccc1n2C)c1ccccc1F -16.6%
COc1ccc(NC(=O)c2ccc3c(=O)n4nc(Nc5cc(C)ccc5C)sc4nc3c2)cc1 -23.1%
CCOc1ccccc1CNC(=O)C1CCN(C2=NS(=O)(=O)C(c3ccc(C)c(C)c3)=C2C)CC1 -12%
O=c1c2oc3ccccc3c2n(Cc2cccc(F)c2)c(=O)n1Cc1ccco1 -13.9%
CS(=O)(=O)CCNCc1ccc(-c2ccc3ncnc(Nc4ccc(OCc5cccc(F)c5)c(Cl)c4)c3c2)o1 -23.3%
COc1cccc(NC(=O)c2sc3nc(C)c(C(=O)Nc4ccc(C)cc4C)c(-c4sccc4C)c3c2N)c1 -14.3%
Cc1onc(-c2c(Cl)cccc2Cl)c1C(=O)Cl -15.4%
CC(C)c1ccc2oc(-c3cc(NC(=O)c4cccs4)ccc3Cl)nc2c1 -7.45%
COc1ccc(C(=O)Nc2cc(C(C)C)c(O)c(S(=O)(=O)c3ccc(OC)cc3)c2C)cc1 -9.53%
Cc1ccccc1N1CCN(S(=O)(=O)c2nnc(NC(=O)c3ccccc3)s2)CC1 -6.06%
c1ccc(Cc2nnc(SCc3nc(-c4cccs4)no3)n2-c2ccccc2)cc1 -8.59%
COc1ccc(S(=O)(=O)c2c(Nc3ccc(F)cc3)sc(C(=O)c3ccc(C)cc3C)c2N)cc1 -16.7%
COc1ccccc1Cn1ccn(Cc2c(F)cccc2Cl)c(=O)c1=O -5.51%
COC(=O)c1ccccc1NC(=O)CCC(=O)N1CCOc2ccccc21 -7.45%
CCOC(=O)c1c(-c2ccccc2)csc1NC(=O)c1nc(S(=O)(=O)CC)ncc1Cl -23.4%
COc1ccc(C2=CC(c3ccccc3F)n3ncc(C(=O)Nc4ccc(C)cc4)c3N2)cc1 (centres undefined) -11.6%
CCN(CC)C(=O)c1sc(NC(=O)C(C)Sc2nc(-c3ccccc3)cc(C(F)(F)F)n2)c(C(=O)OC)c1C (centres undefined) -7.73%
CCC(=O)Nc1ccc(S(=O)(=O)NCc2ccc3c(c2)CCN3C(=O)c2ccc(C)cc2)cc1 -1.04%
CCN(c1ccccc1)c1nnc(NC(=O)Nc2cccc(Cl)c2C)s1 -10.8%
CC(=O)c1ccc(NC(=O)Nc2nnc(N3CCCC(C)C3)s2)cc1 (centres undefined) -46.1%
CSc1ccc(-c2nc3ncccn3c2Nc2ccc(C)c(C)c2)cc1 -9.91%
Nc1cc(=O)nc(SCC(=O)Nc2cccc(Cl)c2)n1CCc1ccccc1 -6.8%
Cc1cccc(-c2c3c(=O)n(C)c(=O)n(C)c3cn2-c2cc(N)c(Cl)cc2Cl)c1 -16.9%
CN(C)c1oc(/C=C/c2ccc(F)cc2)nc1C#N -11.9%
CCOCCCNC(=O)c1cc2c(-c3ccc(OC)c(OC)c3)nn(C)c2s1 -15.4%
COCCN1CCc2nc(SCC(=O)Nc3ccc(Br)cc3)[nH]c(=O)c2C1 -8.92%
Cc1c2cnn(CC(=O)NCc3ccc(F)cc3)c(=O)c2c(C)n1Cc1ccccc1F -11.9%
CC(C)(C)OC(=O)N1CCC(c2c(C(=O)NCc3cccs3)cnn2-c2ccc(F)cc2F)CC1 -28.1%
COc1ccc(Cl)cc1Nc1ncnc2c1c(-c1ccccc1)cn2-c1ccccc1 14%
Cc1noc(/C=C/N(C)C)c1S(=O)(=O)N1CCCC(C(=O)Nc2ccc(F)cc2F)C1 (centres undefined) -11%
